From the supplement of paper PMC4604168 (melanoma cell lines)
Some of the results follow. Single values are uncertain, as repeats are few or missing.

Legend:
Experiment in all cases: cell count relative to DMSO control; melanoma cells; higher = more viable cells
Settings in all cases: library dose: low library concentration; 72 h
MZ2-MEL = tested on: MZ2-MEL
MeWo = tested on: MeWo
RPMI7951 = tested on: RPMI7951
RVH-421 = tested on: RVH-421
SkMel28 = tested on: SkMel28
SkMel2 = tested on: SkMel2
SkMel30 = tested on: SkMel30
SkMel5 = tested on: SkMel5
UACC257 = tested on: UACC257
UACC62 = tested on: UACC62
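Further: cell number obtained by counting DAPI-stained nuclei in high-throughput microscope images with image analysis software, screen run in 1,536-well plates.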

| SMILES | cell count (MZ2-MEL) [%] | cell count (MeWo) [%] | cell count (RPMI7951) [%] | cell count (RVH-421) [%] | cell count (SkMel28) [%] | cell count (SkMel2) [%] | cell count (SkMel30) [%] | cell count (SkMel5) [%] | cell count (UACC257) [%] | cell count (UACC62) [%] |
| --- | --- | --- | --- | --- | --- | --- | --- | --- | --- | --- |
| CS(=O)(=O)c1ccc(C(=O)Nc2ccc(Cl)c(-c3ccccn3)c2)c(Cl)c1 [vismodegib] + CO[C@@H]1[C@H](N(C)C(=O)c2ccccc2)C[C@H]2O[C@]1(C)n1c3ccccc3c3c4c(c5c6ccccc6n2c5c31)C(=O)NC4 [Midostaurin] (first compound 1 µM, partner dose 0.08 µM) | 114 | 82.9 | 97.2 | 99 | 107 | 88.7 | 103 | 92.4 | 89 | 92 |
| CN(c1ncccc1CNc1nc(Nc2ccc3c(c2)CC(=O)N3)ncc1C(F)(F)F)S(C)(=O)=O + Cc1ccc(NC(=O)c2cccc(N(C)C)c2)cc1NC(=O)c1ccc(O)cc1 [ZM336372] (first compound 0.08 µM, partner dose 2 µM) | 64.5 | 107 | 77.8 | 77.3 | 71 | 101 | 81.3 | 71 | 38.4 | 75.6 |
| CS(=O)(=O)c1ccc(C(=O)Nc2ccc(Cl)c(-c3ccccn3)c2)c(Cl)c1 [vismodegib] + O=S(=O)(c1ccccc1)N(CC(F)(F)F)c1ccc(C(O)(C(F)(F)F)C(F)(F)F)cc1 [T0901317] (first compound 1 µM, partner dose 1.4 µM) | 92.3 | 95.1 | 111 | 110 | 87.5 | 101 | 103 | 93.9 | 72.7 | 87.6 |
| NC1(c2ccc(-c3nc4ccn5c(=O)[nH]nc5c4cc3-c3ccccc3)cc2)CCC1 + COc1cc(Nc2ncc(F)c(Nc3ccc4c(n3)NC(=O)C(C)(C)O4)n2)cc(OC)c1OC [Tamatinib] (first compound 0.4 µM, partner dose 0.4 µM) | 86.8 | 79.5 | 85.9 | 82.2 | 64.9 | 60.8 | 79 | 84.9 | 91.5 | 59.3 |
| CS(=O)(=O)c1ccc(C(=O)Nc2ccc(Cl)c(-c3ccccn3)c2)c(Cl)c1 [vismodegib] + NC(=O)Nc1cc(-c2cccc(F)c2)sc1C(=O)N[C@H]1CCCNC1 [AZD7762] (first compound 1 µM, partner dose 0.02 µM) | 108 | 86.7 | 112 | 125 | 76.2 | 110 | 96.9 | 102 | 138 | 106 |
| CS(=O)(=O)c1ccc(C(=O)Nc2ccc(Cl)c(-c3ccccn3)c2)c(Cl)c1 [vismodegib] + C[C@@H]1CCN(C(=O)CC#N)C[C@@H]1N(C)c1ncnc2[nH]ccc12 [CP690550] (first compound 1 µM, partner dose 1 µM) | 107 | 101 | 92.2 | 104 | 98.3 | 97.5 | 105 | 99.4 | 109 | 110 |
| CCCS(=O)(=O)Nc1ccc(F)c(C(=O)c2c[nH]c3ncc(Cl)cc23)c1F + CC(C)CCN1c2nc(Nc3cc(F)c(O)c(F)c3)ncc2N(C)C(=O)C1C [BID1870] (first compound 0.08 µM, partner dose 0.2 µM) | 86 | 98.9 | 107 | 105 | 97.5 | 98.3 | 103 | 117 | 110 | 58.8 |
| NC1(c2ccc(-c3nc4ccn5c(=O)[nH]nc5c4cc3-c3ccccc3)cc2)CCC1 + O=c1cc(-c2cccc3c2Sc2ccccc2S3)oc(N2CCOCC2)c1 [KU55933] (first compound 0.4 µM, partner dose 1 µM) | 96.4 | 78.1 | 102 | 87 | 74.6 | 82.5 | 83.5 | 96.1 | 83.5 | 73.2 |
| CS(=O)(=O)c1ccc(C(=O)Nc2ccc(Cl)c(-c3ccccn3)c2)c(Cl)c1 [vismodegib] + CCN(CC)CCCCNc1ncc2cc(-c3cc(OC)cc(OC)c3)c(NC(=O)NC(C)(C)C)nc2n1 [PD173074] (first compound 1 µM, partner dose 0.1 µM) | 107 | 100 | 113 | 125 | 108 | 110 | 85.9 | 117 | 102 | 105 |
| CN(c1ncccc1CNc1nc(Nc2ccc3c(c2)CC(=O)N3)ncc1C(F)(F)F)S(C)(=O)=O + CN(NC(=O)CC(=O)NN(C)C(=S)c1ccccc1)C(=S)c1ccccc1 [STA4783] (first compound 0.08 µM, partner dose 0.006 µM) | 97.8 | 102 | 89.9 | 96.3 | 89.4 | 90.2 | 102 | 64.1 | 57.1 | 86.7 |
| CS(=O)(=O)c1ccc(C(=O)Nc2ccc(Cl)c(-c3ccccn3)c2)c(Cl)c1 [vismodegib] + COc1ccc2c(c1)CCC1C2CCC2(C)C(NCCCCCCN3C(=O)C=CC3=O)CCC12 [U73122] (first compound 1 µM, partner dose 0.4 µM) | 99.2 | 108 | 76.9 | 126 | 128 | 107 | 153 | 95.5 | 101 | 109 |
| CN(c1ncccc1CNc1nc(Nc2ccc3c(c2)CC(=O)N3)ncc1C(F)(F)F)S(C)(=O)=O + C=CCn1c(=O)c2cnc(Nc3ccc(N4CCN(C)CC4)cc3)nc2n1-c1cccc(C(C)(C)O)n1 [MK1775] (first compound 0.08 µM, partner dose 0.02 µM) | 88.5 | 94.3 | 91.2 | 74 | 73.8 | 90 | 97.1 | 72.1 | 57.8 | 73.1 |
| C=C(c1ccc(C(=O)O)cc1)c1cc2c(cc1C)C(C)(C)CCC2(C)C [Bexarotene] + CCN(CC)CCCCNc1ncc2cc(-c3cc(OC)cc(OC)c3)c(NC(=O)NC(C)(C)C)nc2n1 [PD173074] (first compound 2 µM, partner dose 0.1 µM) | 90.7 | 87.5 | 81.3 | 89.2 | 81.2 | 100 | 95.6 | 92.3 | 120 | 96.6 |
| CS(=O)(=O)c1ccc(C(=O)Nc2ccc(Cl)c(-c3ccccn3)c2)c(Cl)c1 [vismodegib] + Cc1cc([N+](=O)[O-])ccc1NS(=O)(=O)c1cc(Cl)ccc1Cl [FH535] (first compound 1 µM, partner dose 1 µM) | 94.8 | 106 | 92.3 | 101 | 87.7 | 94.2 | 87.5 | 84.7 | 79.4 | 107 |
| CS(=O)(=O)c1ccc(C(=O)Nc2ccc(Cl)c(-c3ccccn3)c2)c(Cl)c1 [vismodegib] + COc1cc(N2CCC(N3CCN(C)CC3)CC2)ccc1Nc1ncc(Cl)c(Nc2ccccc2S(=O)(=O)C(C)C)n1 [NVP-TAE684] (first compound 1 µM, partner dose 0.08 µM) | 94.8 | 96.1 | 82.5 | 122 | 85.9 | 91 | 104 | 88.5 | 65.4 | 93.3 |
| CCCS(=O)(=O)Nc1ccc(F)c(C(=O)c2c[nH]c3ncc(Cl)cc23)c1F + O=C(O)C(=O)Nc1sc2c(c1C(=O)O)CCNC2 [TCS401] (first compound 0.08 µM, partner dose 1.66667 µM) | 81.6 | 108 | 93.8 | 73.1 | 77.8 | 104 | 82.5 | 100 | 86.5 | 68.3 |
| CN(c1ncccc1CNc1nc(Nc2ccc3c(c2)CC(=O)N3)ncc1C(F)(F)F)S(C)(=O)=O + OCCn1cc(-c2cnc3nnn(Cc4ccc5ncccc5c4)c3n2)cn1 [PF04217903] (first compound 0.08 µM, partner dose 1 µM) | 87.3 | 95.8 | 46.8 | 122 | 94.9 | 94.6 | 88 | 84.5 | 61.3 | 85.8 |
| CN(c1ncccc1CNc1nc(Nc2ccc3c(c2)CC(=O)N3)ncc1C(F)(F)F)S(C)(=O)=O + Cc1cc([N+](=O)[O-])ccc1NS(=O)(=O)c1cc(Cl)ccc1Cl [FH535] (first compound 0.08 µM, partner dose 1 µM) | 88.6 | 93.2 | 76.3 | 85 | 71.9 | 84.8 | 83.3 | 77.9 | 67 | 71.5 |
| NC1(c2ccc(-c3nc4ccn5c(=O)[nH]nc5c4cc3-c3ccccc3)cc2)CCC1 + C=CCn1c(=O)c2cnc(Nc3ccc(N4CCN(C)CC4)cc3)nc2n1-c1cccc(C(C)(C)O)n1 [MK1775] (first compound 0.4 µM, partner dose 0.02 µM) | 93.4 | 91.3 | 111 | 73.8 | 61.6 | 83.8 | 72.2 | 62.1 | 77.7 | 76.7 |
| CS(=O)(=O)c1ccc(C(=O)Nc2ccc(Cl)c(-c3ccccn3)c2)c(Cl)c1 [vismodegib] + CC(C)(C)c1cnc(CSc2cnc(NC(=O)C3CCNCC3)s2)o1 [SNS-032] (first compound 1 µM, partner dose 0.01 µM) | 99.8 | 100 | 77.3 | 104 | 89.2 | 103 | 97.7 | 92.2 | 50.2 | 89.4 |
